Experimental data reported in PubChem BioAssay AID686978 (National Center for Advancing Translational Sciences (NCATS), 2013).
Hit rate of the full screen: of about 420,000 compounds, about 64,000 (15%) were called active. Inconclusive results, whose numbers are uncertain, are shown with a selection of clear calls. The call rests on the fitted dose curve; in most records, active means well fitted inhibition curve with a large enough effect; inconclusive means small, poorly fitted or top-dose-only effect; inactive means flat fitted curve, though single readings scatter. Potencies of inconclusive entries are left out as doubtful fits.

test: qHTS for Inhibitors of human tyrosyl-DNA phosphodiesterase 1 (TDP1): qHTS in cells in absence of CPT; settings: DT40 Tdp1-/- hTDP1 cells, no CPT, ATP luminescence, 48 h; series mostly up to 46.2 µM; further: nearly all actives have a fitted effect of over 55% in size
How it was run: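 Chicken DT40 Tdp1-/- cells complemented with human TDP1, screened without camptothecin (DMSO vehicle only), 400 cells/well. Compounds pin-transferred, cells incubated at 37 °C for at least 48 hr. Growth read as ATP-dependent luminescence (CellTiter-Glo, 30 min at RT).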
Potency means the concentration at half of the fitted maximal effect; tags describe the fitted curve by direction and shape.

SMILES | Potency
COCC(=O)N1CCC(Oc2ccc(C(=O)NCc3cc(C)n(C)n3)cc2)CC1 | inactive
CCCCN(CCCC)C(=O)c1cc2c(=O)n3cccc(C)c3nc2s1 | inconclusive [inhibitor, single point]
CCOC(=O)c1sc(S(C)=O)c2c1CCc1conc1-2 (stereo not given) | inconclusive [inhibitor, partial curve, poor fit]
COc1ccc(N(CC(=O)NCc2ccc(F)cc2)C(=O)c2snc(C(N)=O)c2N)cc1OC | inactive
CCOC(=O)c1ccc(-n2c(=O)[nH]c3ccccc3c2=O)cc1 | inactive
Cc1ccc(C)c(-n2c(Cc3cccs3)n[nH]c2=S)c1 | inconclusive [inhibitor, single point]
CCc1ccc(OCCOCC(O)CNC(C)CC)cc1 (stereo not given) | inconclusive [inhibitor, single point]
CCCCCS(=O)(=O)c1oc(-c2cccs2)nc1S(=O)(=O)c1ccc(C)cc1 | active: 3.66 µM
N[C@@H](CSSC[C@H](N)C(=O)O)C(=O)O | inactive
CCOc1ccc(Br)cc1S(=O)(=O)Nc1cccc(S(=O)(=O)N(C)C)c1 | inactive
COc1ccc(NC(=O)CNC(=O)C23CC4CC(CC(C4)C2)C3)c(OC)c1 | inconclusive [inhibitor, single point]
Cc1ccc2[nH]c3c(=O)n(CC(=O)Nc4ccccc4N4CCN(C)CC4)ncc3c2c1 | inconclusive [inhibitor, single point]
CCc1ccc(CN(C)C(=O)C2CCC(=O)N(Cc3ccccn3)C2)cc1 (stereo not given) | inactive
Cc1cccc(OCC(=O)N(Cc2cccs2)c2ccc(Cl)cc2)c1C | inconclusive [inhibitor, partial curve]
CN1CCN(c2ncc3nc(-c4cccc(C#N)c4)c(=O)n(Cc4ccc(F)cc4)c3n2)CC1 | inconclusive [inhibitor, single point]
CN(C(=O)C1CCCCC1)C1CCS(=O)(=O)C1 (stereo not given) | inactive
Cc1cccc(OC(C)C(=O)N2CCCc3ccccc32)c1 (stereo not given) | inconclusive [inhibitor, single point]
COc1ccc(NC(=S)N(CCc2ccncc2)C(C)C)cc1Cl | inconclusive [inhibitor, single point]
COc1ccc(-c2cc3ccc(O)c(CN4CCOCC4)c3oc2=O)cc1OC | inconclusive [inhibitor, single point]
COc1ccccc1CNC(=O)C(NS(=O)(=O)c1cccs1)C(C)C (stereo not given) | inconclusive [inhibitor, partial curve, poor fit]
